Publication PMC9911399, “Two distinct binding modes provide the RNA-binding protein RbFox with extraordinary sequence specificity”
Changes are numbered by the printed parent chain; changes in the protein carry UniProt numbers. The list shows a part of the results.

T1: RBFOX1 RRM RbFoxmut (Fox-RRM*) (Homo sapiens, UniProt Q9NWB1 109-208, R118D;E147R;N151S;E152T)
T1 sequence: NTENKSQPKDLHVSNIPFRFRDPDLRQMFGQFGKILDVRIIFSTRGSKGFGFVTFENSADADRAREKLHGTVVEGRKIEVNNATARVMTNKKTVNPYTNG

B1: CAACUUU (DNA:RNA)
RNA: GGGAGACCGGAAUUCAGAUUGUCCCAACUUUUUAAAUCCCGUCGUAGCCACCA
DNA 1: CAATCTGAATTCCGGTCTCCC
DNA 2: TGGTGGCTACGACGGGATT
B2: GCCGCGA (DNA:RNA)
RNA: GGGAGACCGGAAUUCAGAUUGUCCGCCGCGAUUAAAUCCCGUCGUAGCCACCA
DNA 1: CAATCTGAATTCCGGTCTCCC
DNA 2: TGGTGGCTACGACGGGATT
B3: AAUUAGG (DNA:RNA)
RNA: B1 RNA with C25A, A27U, C28U, U29A, U30G, U31G
DNA 1: CAATCTGAATTCCGGTCTCCC
DNA 2: TGGTGGCTACGACGGGATT
B4: UGUUUAA (DNA:RNA)
RNA: B1 RNA with C25U, A26G, A27U, C28U, U30A, U31A
DNA 1: CAATCTGAATTCCGGTCTCCC
DNA 2: TGGTGGCTACGACGGGATT
B5: AGAUUCA (DNA:RNA)
RNA: B1 RNA with C25A, A26G, C28U, U30C, U31A
DNA 1: CAATCTGAATTCCGGTCTCCC
DNA 2: TGGTGGCTACGACGGGATT
B6: CAUAAUG (DNA:RNA)
RNA: B1 RNA with A27U, C28A, U29A, U31G
DNA 1: CAATCTGAATTCCGGTCTCCC
DNA 2: TGGTGGCTACGACGGGATT
B7: GAGGGGA (DNA:RNA)
RNA: B2 RNA with C26A, C27G, C29G
DNA 1: CAATCTGAATTCCGGTCTCCC
DNA 2: TGGTGGCTACGACGGGATT
B8: GCGCACA (DNA:RNA)
RNA: B2 RNA with C27G, G28C, C29A, G30C
DNA 1: CAATCTGAATTCCGGTCTCCC
DNA 2: TGGTGGCTACGACGGGATT
B9: GUGGCGU (DNA:RNA)
RNA: B2 RNA with C26U, C27G, A31U
DNA 1: CAATCTGAATTCCGGTCTCCC
DNA 2: TGGTGGCTACGACGGGATT
B10: UAAGCAA (DNA:RNA)
RNA: B2 RNA with G25U, C26A, C27A, G30A
DNA 1: CAATCTGAATTCCGGTCTCCC
DNA 2: TGGTGGCTACGACGGGATT
B11: UUUGUUA (DNA:RNA)
RNA: B1 RNA with C25U, A26U, A27U, C28G, U31A
DNA 1: CAATCTGAATTCCGGTCTCCC
DNA 2: TGGTGGCTACGACGGGATT
B12: GAGAUCG (DNA:RNA)
RNA: B1 RNA with C25G, A27G, C28A, U30C, U31G
DNA 1: CAATCTGAATTCCGGTCTCCC
DNA 2: TGGTGGCTACGACGGGATT
B13: AUCGCGA (DNA:RNA)
RNA: B2 RNA with G25A, C26U
DNA 1: CAATCTGAATTCCGGTCTCCC
DNA 2: TGGTGGCTACGACGGGATT
B14: AAUUGAU (DNA:RNA)
RNA: B1 RNA with C25A, A27U, C28U, U29G, U30A
DNA 1: CAATCTGAATTCCGGTCTCCC
DNA 2: TGGTGGCTACGACGGGATT
B15: UGUAAUG (DNA:RNA)
RNA: B1 RNA with C25U, A26G, A27U, C28A, U29A, U31G
DNA 1: CAATCTGAATTCCGGTCTCCC
DNA 2: TGGTGGCTACGACGGGATT
B16: CGCACUA (DNA:RNA)
RNA: B2 RNA with G25C, C26G, G28A, G30U
DNA 1: CAATCTGAATTCCGGTCTCCC
DNA 2: TGGTGGCTACGACGGGATT
B17: AAUCGAC (DNA:RNA)
RNA: B1 RNA with C25A, A27U, U29G, U30A, U31C
DNA 1: CAATCTGAATTCCGGTCTCCC
DNA 2: TGGTGGCTACGACGGGATT
B18: UACAAGG (DNA:RNA)
RNA: B2 RNA with G25U, C26A, G28A, C29A, A31G
DNA 1: CAATCTGAATTCCGGTCTCCC
DNA 2: TGGTGGCTACGACGGGATT
B19: UCAGCGA (DNA:RNA)
RNA: B2 RNA with G25U, C27A
DNA 1: CAATCTGAATTCCGGTCTCCC
DNA 2: TGGTGGCTACGACGGGATT
B20: ACUUUGG (DNA:RNA)
RNA: B2 RNA with G25A, C27U, G28U, C29U, A31G
DNA 1: CAATCTGAATTCCGGTCTCCC
DNA 2: TGGTGGCTACGACGGGATT
B21: CGACCUA (DNA:RNA)
RNA: B1 RNA with A26G, U29C, U31A
DNA 1: CAATCTGAATTCCGGTCTCCC
DNA 2: TGGTGGCTACGACGGGATT
B22: UCCUGAG (DNA:RNA)
RNA: B2 RNA with G25U, G28U, C29G, G30A, A31G
DNA 1: CAATCTGAATTCCGGTCTCCC
DNA 2: TGGTGGCTACGACGGGATT
B23: ACAAAGA (DNA:RNA)
RNA: B2 RNA with G25A, C27A, G28A, C29A
DNA 1: CAATCTGAATTCCGGTCTCCC
DNA 2: TGGTGGCTACGACGGGATT
B24: GCGGCUA (DNA:RNA)
RNA: B2 RNA with C27G, G30U
DNA 1: CAATCTGAATTCCGGTCTCCC
DNA 2: TGGTGGCTACGACGGGATT
B25: CGCUACA (DNA:RNA)
RNA: B2 RNA with G25C, C26G, G28U, C29A, G30C
DNA 1: CAATCTGAATTCCGGTCTCCC
DNA 2: TGGTGGCTACGACGGGATT
B26: UAGGUCA (DNA:RNA)
RNA: B1 RNA with C25U, A27G, C28G, U30C, U31A
DNA 1: CAATCTGAATTCCGGTCTCCC
DNA 2: TGGTGGCTACGACGGGATT
B27: GGGAAGU (DNA:RNA)
RNA: B2 RNA with C26G, C27G, G28A, C29A, A31U
DNA 1: CAATCTGAATTCCGGTCTCCC
DNA 2: TGGTGGCTACGACGGGATT
B28: AGCGCAU (DNA:RNA)
RNA: B2 RNA with G25A, C26G, G30A, A31U
DNA 1: CAATCTGAATTCCGGTCTCCC
DNA 2: TGGTGGCTACGACGGGATT
B29: GCACUGA (DNA:RNA)
RNA: B2 RNA with C27A, G28C, C29U
DNA 1: CAATCTGAATTCCGGTCTCCC
DNA 2: TGGTGGCTACGACGGGATT
B30: UUAUCCG (DNA:RNA)
RNA: B1 RNA with C25U, A26U, C28U, U29C, U30C, U31G
DNA 1: CAATCTGAATTCCGGTCTCCC
DNA 2: TGGTGGCTACGACGGGATT
B31: AGUUGGA (DNA:RNA)
RNA: B2 RNA with G25A, C26G, C27U, G28U, C29G
DNA 1: CAATCTGAATTCCGGTCTCCC
DNA 2: TGGTGGCTACGACGGGATT

Each binder was assayed against T1, RBFOX1 RRM RbFoxmut (Fox-RRM*) (assay: EMSA; HiTS-Eq, 1 nM pool, 10 min; buffer printed only for the single-RNA assays: 10 mM Tris pH 7.5, 150 mM NaCl, 3.4 mM EDTA, 0.001% NP-40, 30 C). Conditions: tags: His6 N-terminal (pET28a); label: 5' 32P.
Method in brief: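 Purified wild-type or mutant RbFox RRM at increasing concentrations was equilibrated with 1 nM of 5′-radiolabelled RNA carrying 7 randomized nucleotides for 10 min in 50 µL. Unbound RNA was separated by 8% native PAGE and sequenced. Relative association constants came from read-count changes of each RNA species compared with the control reaction, normalised to the cognate motif.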
In the case of B1, the binding signal is reported as 0.0981 KA relative to UGCAUGU.
For B2, the binding signal was 0.0939 KA relative to UGCAUGU.
B3 was tested, and the binding signal was 0.106 KA relative to UGCAUGU.
With B4 the binding signal was 0.105 KA relative to UGCAUGU.
With B5 the binding signal was 0.107 KA relative to UGCAUGU.
For B6, the binding signal was 0.119 KA relative to UGCAUGU.
For B7, the binding signal was 0.0761 KA relative to UGCAUGU.
B8 was tested, and the binding signal was 0.093 KA relative to UGCAUGU.
B9 was tested, and the binding signal was 0.157 KA relative to UGCAUGU.
For B10, the binding signal was 0.0539 KA relative to UGCAUGU.
With B11 the binding signal was 0.15 KA relative to UGCAUGU.
With B12 the binding signal was 0.19 KA relative to UGCAUGU.
With B13 the binding signal was 0.0938 KA relative to UGCAUGU.
In the case of B14, the binding signal is reported as 0.0682 KA relative to UGCAUGU.
For B15, the binding signal was 0.381 KA relative to UGCAUGU.
With B16 the binding signal was 0.125 KA relative to UGCAUGU.
B17 was tested, and the binding signal was 0.0553 KA relative to UGCAUGU.
B18 was tested, and the binding signal was 0.0537 KA relative to UGCAUGU.
For B19, the binding signal was 0.0872 KA relative to UGCAUGU.
In the case of B20, the binding signal is reported as 0.109 KA relative to UGCAUGU.
B21 was tested, and the binding signal was 0.0975 KA relative to UGCAUGU.
For B22, the binding signal was 0.0899 KA relative to UGCAUGU.
In the case of B23, the binding signal is reported as 0.107 KA relative to UGCAUGU.
For B24, the binding signal was 0.136 KA relative to UGCAUGU.
With B25 the binding signal was 0.0907 KA relative to UGCAUGU.
B26 was tested, and the binding signal was 0.0827 KA relative to UGCAUGU.
With B27 the binding signal was 0.095 KA relative to UGCAUGU.
For B28, the binding signal was 0.0962 KA relative to UGCAUGU.
For B29, the binding signal was 0.0877 KA relative to UGCAUGU.
With B30 the binding signal was 0.086 KA relative to UGCAUGU.
In the case of B31, the binding signal is reported as 0.0719 KA relative to UGCAUGU.
